# Over roughly 33,000 sequences, “E-score (-0.5 to 0.5)” has its median near -0.032; the highest 2% begin near 0.36. The list shows a part of the results.
# Molecular target: T1, Sko1 (UniProt Q02100)
# T1 sequence: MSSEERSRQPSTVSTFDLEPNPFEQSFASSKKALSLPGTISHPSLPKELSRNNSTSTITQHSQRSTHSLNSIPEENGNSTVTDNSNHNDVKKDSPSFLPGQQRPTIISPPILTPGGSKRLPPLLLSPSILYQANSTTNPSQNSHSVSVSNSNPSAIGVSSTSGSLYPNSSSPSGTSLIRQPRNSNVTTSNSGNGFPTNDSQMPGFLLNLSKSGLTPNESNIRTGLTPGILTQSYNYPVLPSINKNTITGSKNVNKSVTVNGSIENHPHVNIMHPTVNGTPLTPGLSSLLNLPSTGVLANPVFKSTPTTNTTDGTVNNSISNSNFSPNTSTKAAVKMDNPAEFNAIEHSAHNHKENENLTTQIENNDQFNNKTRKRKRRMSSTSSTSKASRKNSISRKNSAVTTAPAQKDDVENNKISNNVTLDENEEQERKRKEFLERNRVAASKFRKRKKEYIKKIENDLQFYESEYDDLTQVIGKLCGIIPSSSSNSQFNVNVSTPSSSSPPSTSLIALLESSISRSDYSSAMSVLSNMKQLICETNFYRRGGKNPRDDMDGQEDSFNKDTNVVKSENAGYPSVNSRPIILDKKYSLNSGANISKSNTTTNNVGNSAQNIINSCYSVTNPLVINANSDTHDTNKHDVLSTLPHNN
# Assay: PBM E-score (8-mer binding enrichment) (E-score (-0.5 to 0.5)); higher = stronger / more preferred TF binding; most listed sequences are background and not binding sites
# Settings: protein concentration: 200 nM; construct: GST-full length
# Experimental: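 Universal 'all 10-mer' protein binding microarrays (Agilent AMADID 015681) probed with GST-tagged S. cerevisiae TFs (full-length or DBD) made by in vitro transcription/translation (PURExpress), about 100-200 nM. Bound TF was detected with fluorescent anti-GST. Each ungapped 8-mer (which stands for itself and its reverse complement) is scored by the PBM enrichment score (E-score), a modified Wilcoxon-Mann-Whitney statistic from -0.5 to +0.5, computed with the Universal PBM Analysis Suite. Scale: above 0.35 generally sequence-specific binding.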
row,Sequence,PBM E-score
1,AAAGCGGA,-0.141
2,CATGGAGC,-0.156
3,GCCGTATA,0.158
4,CTTGGAGC,-0.145
5,GCACCTCC,-0.382
6,CGTTAAAA,-0.0266
7,ACTATCCC,-0.29
8,CGGGTAAG,-0.276
9,GGAACACA,-0.0973
10,ACCCCCGG,-0.253
11,AAGAGCGC,-0.00548
12,AGATGCGC,0.0737
13,ACAGTAGC,-0.168
14,GATTGCAA,-0.0446
15,CGAACTAC,0.157
16,ACTATAAC,0.129
17,CTGAGAGC,-0.235
18,AGAGGTCC,-0.258
19,ACGTAGAC,0.415
20,GCCGACGA,-0.118
21,CGATTCGC,-0.0305
22,CCGCATAA,0.0495
23,CCAAGAAG,0.00927
24,CTTTCGTC,0.139
25,AAATCTTA,0.127

row,Sequence,PBM E-score
1,CGGCACTA,-0.158
2,ACTATTCG,0.179
3,CTGACATA,0.266
4,ACCGAGCC,-0.239
5,TACTAGGA,-0.0768
6,CCAATCGG,-0.117
7,AGGACACT,-0.228
8,GACGAGAA,0.191
9,GGCGCACA,-0.175
10,AGAAAAGC,-0.032
11,CGTAAAGC,0.242
12,TAATATCA,0.276
13,TTGGGAAA,0.0975
14,CTCATCCA,0.0808
15,ATCTTACA,0.081
16,CCCGGTAG,-0.154
17,CGGGTTAC,0.0485
18,ACTTTGCT,0.0126
19,GCGGATTA,0.0702
20,GCTGCAGC,-0.149
21,TAAGGTAA,0.107
22,ATCATTCA,0.252
23,AACGGATC,0.0398
24,CGATTAGC,-0.019
25,CGCTAGAG,-0.107

row,Sequence,PBM E-score
1,CTTCAGGC,-0.173
2,ACCCCTTA,-0.111
3,GGAACGAA,-0.00675
4,GTGTAAGA,0.0148
5,CTACCGTC,-0.163
6,CTAGAGAG,-0.253
7,GAGGTGTA,-0.117
8,CAAGGGTG,0.00919
9,GCTTCGAA,-0.0594
10,ATATGTGG,0.141
11,CTGCGCGA,-0.0439
12,AGACAACT,-0.00069
13,GCCTTTAA,-0.00961
14,AATTCGGC,-0.315
15,CGTCATAC,0.486
16,GAGAGAGA,-0.0195
17,AACGGTAT,0.051
18,CGCGGATC,-0.0369
19,CGCACAGC,-0.233
20,GCCCCTCC,-0.221
21,AATGGGTA,0.199
22,AGGACTTA,-0.0304
23,CCTGCATA,-0.204
24,CCCAGTAC,-0.186
25,AGTTCCCC,-0.139

row,Sequence,PBM E-score
1,AAGTAAGG,0.127
2,TACTCGAA,0.164
3,AAAGCATC,-0.0705
4,GTGATCAC,0.025
5,ATGGGGAA,-0.0964
6,AATCGACC,-0.0464
7,AAGGGGGC,-0.294
8,AGTGAAGC,-0.00277
9,GGTAAACA,0.136
10,AGCTGAAC,-0.23
11,AAATCTGG,-0.131
12,ACTGTGGG,-0.0973
13,ATATAATG,0.105
14,CGTAGATA,0.305
15,CCGGGCAA,-0.329
16,AGATTGCA,-0.0307
17,GCGACACA,-0.0306
18,ATCGTAGG,0.119
19,CACCAGTC,-0.164
20,GGGAGACA,-0.191
21,AATGTGCC,-0.201
22,GCGTTACC,-0.169
23,CCGCGAGC,-0.239
24,GTGTCGCA,0.0574
25,GAGTAGCC,-0.125

row,Sequence,PBM E-score
1,TCCTTTAA,-0.0526
2,CCCGCGTC,0.0324
3,CGAGTGAC,-0.0304
4,TCCGATCA,-0.128
5,GTCAGTGA,0.178
6,ACGACGGC,0.0388
7,CACTACGG,-0.0887
8,ACATATAT,0.271
9,ACTTTGCC,-0.138
10,AGTGACGG,0.146
11,ATTGGACG,0.114
12,GTATATAA,0.258
13,AGAGAAAA,0.0565
14,CCCTTTGC,-0.0437
15,ATTTCGGC,-0.0959
16,CAGCTGCC,-0.28
17,AGTGTTTA,0.178
18,AGCCAAGA,0.0413
19,ACAATCCA,0.157
20,AACTTAGC,0.0908
21,AGATAAAG,0.0246
22,ATGACTCG,0.0504
23,ACACGAGC,-0.188
24,ATTTAAAT,0.177
25,GGATTGCC,-0.121

row,Sequence,PBM E-score
1,CAAGCATG,0.0857
2,AATCGGGC,-0.105
3,ACCTTAAT,0.114
4,CAATTCAA,0.0751
5,CTAACGGC,-0.11
6,CATTCGCG,0.147
7,CGACGGGC,0.0654
8,AGTTGGCA,-0.0505
9,ACTTCACT,-0.113
10,ATTTAAAG,0.0498
11,AATAAGGA,-0.158
12,GTGATAGA,0.111
13,GCAATGAA,0.128
14,GCGGAAGC,-0.13
15,CTGGGACC,-0.153
16,CCGCGATC,-0.118
17,CTGCTCAA,-0.157
18,AACCATAG,-0.139
19,ACTGTGAC,0.151
20,GGCAAGCA,-0.125
21,CATTCCAC,0.00783
22,AACTCCAG,-0.205
23,GGCTTAGA,-0.178
24,ACAGTCGG,-0.107
25,CTTAGTTA,-0.0251

row,Sequence,PBM E-score
1,GGATGACA,0.147
2,ATCCAAGG,-0.146
3,TAACACGA,0.217
4,AGTCCTAA,-0.0224
5,TGGACTAA,-0.0408
6,ACACACGT,0.433
7,AGCAAAAA,0.192
8,CTTCCGTA,0.0767
9,ACGTAATC,0.492
10,ACTATCGG,-0.148
11,CAATGTCA,0.182
12,CCGAGGCG,-0.274
13,TCACGGCA,-0.0122
14,ACTCTGTG,-0.254
15,CCACATCA,0.175
16,ATGGATTC,-0.0896
17,AACCCCGG,-0.229
18,ACCCCTGA,-0.165
19,CGGTGCCC,-0.159
20,AATTGAGT,0.0639
21,CTGTAACA,-0.231
22,AAAAAAGT,0.12

# Source: the supplement of paper PMC3334620
